{
  "source": "PubChem BioAssay AID248",
  "about": "(DTP/NCI, 2004)",
  "tested_on": "L1210 leukemia ip in BDF1 mice, survival T/C",
  "assay": "NCI In Vivo Anticancer Drug Screen. Data for tumor model L1210 Leukemia (intraperitoneal) in B6D2F1 (BDF1) mice",
  "conditions": "endpoint: mean survival time, higher = longer survival",
  "note": "Toxic doses and inconclusive results are not listed. Certain results were filed several times, with different values. The list is limited to them. The source may hold further records. Results that share an entry differ, and nothing given here explains why; they may come from other doses, times, organisms or constructs than stated.",
  "data": [
    {"smiles": "O=P(N1CCOCC1)(N1CC1)N1CC1", "values": [
      {"measurement": "T/C", "setting": "dose: 35.0 mg/kg/injection, schedule: Q01DX001 (ip), vehicle: saline", "result": "119 % of control and 162 % of control"}
    ]},
    {"smiles": "Cc1c(O)ccc(=O)n1O", "values": [
      {"measurement": "T/C", "setting": "dose: 96.0 mg/kg/injection, schedule: Q01DX009 (ip), vehicle: Klucel (hydroxypropylcellulose) (HPC)", "result": "117 % of control and 156 % of control"}
    ]}
  ]
}
